Source: the supplement of paper PMC4967469
By IC50 is meant the dose at which the fit gives 50% viability; a limit (>, <) means that the fit lies beyond the doses tested. For AUC the same curve is integrated over the 256-fold range of doses and scaled to a fraction; values near 1 show little effect. For part of these data: Where the top dose is marked as inferred, it comes from the curve model; the source does not state it. For part of these data: An entry number marks a drug with two screens in the source, which often give different values.

Legend:
Assay in all cases: Viability of human cancer cell lines after 72 h of drug (GDSC screen)
ABT-869 = compound: Cc1ccc(F)c(NC(=O)Nc2ccc(-c3cccc4[nH]nc(N)c34)cc2)c1 [ABT-869]; conditions: top dose 1.024 µM; top dose inferred
Experimental: (§1)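 Human cancer cell lines in 384-well plates, medium with 10% serum, drug for 72 h over a 256-fold dose range (nine 2-fold or five 4-fold steps up to the top dose). Adherent lines were fixed and stained with the nucleic acid dye Syto60, suspension lines read with resazurin; signal relative to control wells, capped at 0 and 100%. One two-parameter sigmoid per drug and line, fitted in a mixed model over all curves with the slope shared within a line.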

Thapsigargin = compound: C/C=C(/C)C(=O)O[C@H]1C(C)=C2[C@H]([C@@H]1OC(=O)CCCCCCC)[C@@](C)(OC(C)=O)C[C@H](OC(=O)CCC)[C@@]1(O)[C@H]2OC(=O)[C@@]1(C)O [Thapsigargin]; conditions: top dose 0.512 µM; top dose inferred
Experimental: as §1

ABT-888 = compound: C[C@]1(c2nc3c(C(N)=O)cccc3[nH]2)CCCN1 [ABT-888]; conditions: top dose 5 µM; top dose inferred
Experimental: as §1

Cytarabine = compound: Nc1ccn([C@@H]2O[C@H](CO)[C@@H](O)[C@@H]2O)c(=O)n1 [Cytarabine]; conditions: top dose 2 µM
Experimental: as §1

Zibotentan = compound: COc1nc(C)cnc1NS(=O)(=O)c1cccnc1-c1ccc(-c2nnco2)cc1 [Zibotentan]; conditions: top dose 20 µM; top dose inferred
Experimental: as §1

GSK269962A = compound: CCn1c(-c2nonc2N)nc2cnc(Oc3cccc(NC(=O)c4ccc(OCCN5CCOCC5)cc4)c3)cc21 [GSK269962A]; conditions: top dose 5 µM; screen: GDSC drug entry 1192; top dose inferred
Experimental: as §1

(5Z)-7-Oxozeaenol = compound: COc1cc(O)c2c(c1)/C=C/C[C@H](O)[C@H](O)C(=O)/C=C\C[C@H](C)OC2=O [(5Z)-7-Oxozeaenol]; conditions: top dose 10 µM; top dose inferred
Experimental: as §1

MPS-1-IN-1 = compound: COc1cc(N2CCC(O)CC2)ccc1Nc1cc(Nc2ccccc2S(=O)(=O)C(C)C)c2cc[nH]c2n1 [MPS-1-IN-1]; conditions: top dose 20 µM; top dose inferred
Experimental: as §1

CHIR-99021 = compound: Cc1cnc(-c2cnc(NCCNc3ccc(C#N)cn3)nc2-c2ccc(Cl)cc2Cl)[nH]1 [CHIR-99021]
Experimental: as §1

KU-55933 = compound: O=c1cc(-c2cccc3c2Sc2ccccc2S3)oc(N2CCOCC2)c1 [KU-55933]; conditions: top dose 10 µM
Experimental: as §1

QL-X-138 = compound: C=CC(=O)Nc1cc(-n2c(=O)ccc3cnc4ccc(-c5cn[nH]c5)cc4c32)ccc1C [QL-X-138]; conditions: top dose 10.24 µM; top dose inferred
Experimental: as §1

CP466722 = compound: COc1cc2ncnc(-n3nc(-c4ccccn4)nc3N)c2cc1OC [CP466722]; conditions: top dose 16 µM; top dose inferred
Experimental: as §1

[1] = top dose 2.56 µM, screen: GDSC drug entry 154
[2] = top dose 10 µM, screen: GDSC drug entry 1241, top dose inferred

Cell Line | AUC (ABT-869) | IC50 (ABT-869) [µM] | AUC (Thapsigargin) | IC50 (Thapsigargin) [µM] | AUC (ABT-888) | IC50 (ABT-888) [µM] | AUC (Cytarabine) | IC50 (Cytarabine) [µM] | AUC (Zibotentan) | IC50 (Zibotentan) [µM] | AUC (GSK269962A) | IC50 (GSK269962A) [µM] | AUC ((5Z)-7-Oxozeaenol) | IC50 ((5Z)-7-Oxozeaenol) [µM] | AUC (MPS-1-IN-1) | IC50 (MPS-1-IN-1) [µM] | AUC (CHIR-99021; [1]) | IC50 (CHIR-99021; [1]) [µM] | AUC (CHIR-99021; [2]) | IC50 (CHIR-99021; [2]) [µM] | AUC (KU-55933) | IC50 (KU-55933) [µM] | AUC (QL-X-138) | IC50 (QL-X-138) [µM] | AUC (CP466722) | IC50 (CP466722) [µM]
C3A (liver, adherent) | 0.97 | > 1.02 | 0.394 | 0.0161 | 0.988 | > 5 | 0.889 | > 2 | 0.988 | > 20 | 0.86 | 4.47 | 0.681 | 2.05 | 0.988 | > 20 | 0.983 | > 2.56 | 0.933 | > 10 | 0.979 | > 10 | 0.985 | > 10.2 | 0.987 | > 16
C32 (melanoma, adherent) | 0.765 | 0.398 | 0.73 | 0.153 | 0.961 | > 5 | 0.428 | 0.0784 | 0.983 | > 20 | 0.864 | 4.88 | 0.161 | 0.0524 | 0.987 | > 20 | 0.955 | > 2.56 | 0.976 | > 10 | 0.982 | > 10 | 0.899 | > 10.2 | 0.987 | > 16
C-4-I (cervix, adherent) | 0.98 | > 1.02 | 0.311 | 0.00898 | 0.986 | > 5 | 0.673 | 0.396 | 0.986 | > 20 | 0.856 | 4.56 | 0.604 | 1.24 | 0.963 | > 20 | 0.952 | > 2.56 | 0.981 | > 10 | 0.954 | > 10 | 0.915 | > 10.2 | 0.98 | > 16
CAL-12T (non-small cell lung carcinoma, adherent) | 0.982 | > 1.02 | 0.11 | < 0.002 | 0.961 | > 5 | 0.929 | > 2 | 0.98 | > 20 | 0.94 | > 5 | 0.759 | 3.89 | 0.833 | 15 | 0.981 | > 2.56 | 0.902 | > 10 | 0.893 | > 10 | 0.58 | 1.09 | 0.649 | 2.73
CAL-27 (head and neck, adherent) | 0.982 | > 1.02 | 0.201 | 0.00409 | 0.957 | > 5 | 0.832 | 1.32 | 0.985 | > 20 | 0.837 | 3.43 | 0.553 | 0.874 | 0.84 | 14.2 | 0.985 | > 2.56 | 0.954 | > 10 | 0.953 | > 10 | 0.798 | 4.98 | 0.897 | > 16
CAL-29 (bladder, adherent) | 0.971 | > 1.02 | 0.784 | 0.235 | 0.981 | > 5 | 0.77 | 0.821 | 0.977 | > 20 | 0.828 | 3.42 | 0.524 | 0.729 | 0.974 | > 20 | 0.959 | > 2.56 | 0.937 | > 10 | 0.944 | > 10 | 0.806 | 5.69 | 0.865 | 15.9
CAL-39 (cervix, adherent) | 0.983 | > 1.02 | 0.193 | 0.00374 | 0.979 | > 5 | 0.8 | 1.01 | 0.98 | > 20 | 0.904 | > 5 | 0.763 | 3.73 | 0.848 | 15.8 | 0.986 | > 2.56 | 0.971 | > 10 | 0.981 | > 10 | 0.92 | > 10.2 | 0.872 | > 16
CAL-62 (thyroid, adherent) | 0.986 | > 1.02 | 0.33 | 0.011 | 0.96 | > 5 | 0.717 | 0.497 | 0.986 | > 20 | 0.659 | 0.845 | 0.397 | 0.331 | 0.967 | > 20 | 0.981 | > 2.56 | 0.946 | > 10 | 0.97 | > 10 | 0.806 | 4.91 | 0.885 | > 16
CAL-72 (osteosarcoma, adherent) | 0.982 | > 1.02 | 0.289 | 0.0072 | 0.982 | > 5 | 0.727 | 0.63 | 0.981 | > 20 | 0.765 | 2.15 | 0.608 | 1.31 | 0.984 | > 20 | 0.877 | > 2.56 | 0.895 | > 10 | 0.933 | > 10 | 0.984 | > 10.2 | 0.984 | > 16
